Values joined by “and” are separate entries in the source; they are usually repeats but may differ in a detail not shown here. Identical values can stand only once. Inconclusive results, whose numbers are uncertain, are shown with a selection of clear calls. Potencies beside an inconclusive call are fits to weak or partial responses and may not hold up. Active and inactive are the calls of the source. Unless noted, the call rests on the fitted dose curve; in most records, active means well fitted curve in the direction sought with a large enough effect in the repeat runs; inconclusive means weak or mixed curves; inactive means no such curve, though single readings can be large; an effect the other way counts as inactive or inconclusive.
tested on: not listed separately; test: qHTS assay for small molecule disruptors of the mitochondrial membrane potential - 1 hr assay (AID 651754; calls by dose curve; further: nearly all actives have a fitted effect of over 35% in size; on ratio change, negative = depolarisation: on the % scale 0 is the no-effect control and ±100 the full control effect); settings: ratio change, negative = depolarisation: at 92.2 µM (top of the series)
In short: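 Mitochondrial potential in living HepG2 cells after 1 hr compound treatment at 37C was read with Mito-MPS dye added for a further 30 min. Red aggregate and green monomer fluorescence were measured; loss of potential leaves dye as cytoplasmic monomers.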
Potency means the concentration at half of the fitted maximal effect; tags describe the fitted curve by direction and shape.

Row | SMILES | ratio change, negative = depolarisation | Potency
1 | CCN(CC)CCO | inactive: 0.173% | –
2 | Oc1c(Cl)cc(Cl)cc1Cl | inconclusive: -18.6% | –
3 | O=S(=O)(Cl)c1ccccc1 | inconclusive: 2.95% | –
4 | S=C=Nc1cccc2ccccc12 | – | inconclusive: 75 µM [inhibitor, single point]

tested on: not listed separately; test: qHTS assay to identify small molecules that stimulate interleukin-8 (IL-8) secretion (AID 651758; active means well fitted activation curve with a large enough effect in the signal ratio; inconclusive means small, poorly fitted or top-dose-only effect, or effect the other way, or a change in a side signal; the % refers to the signal ratio; on activation: 0% is about no effect); settings: HTRF ratio (665/615); activation: at 92.2 µM (top of the series)
In short: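 Quantitative HTS in THP-1 monocytic cells at 2000 cells per well, with 16 hrs compound incubation at 37 C. IL-8 in the medium was then quantified by HTRF immunoassay, read after 1-3 hrs at room temperature.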

Row | SMILES | Potency | activation
5 | c1cc(OCC2CO2)cc(OCC2CO2)c1 (configuration not stated) | active: 42.2 µM | –
6 | CC(C)(C)OO | inconclusive: 75 µM [activator, single point] and inactive | –
7 | CCN(CC)CCO | – | inconclusive: -28.9%
8 | Nc1cccc(Cl)c1 | – | inconclusive: 8.71%
9 | C#CCO | – | inconclusive: 21.8%
10 | CCCCCCCC(=O)Cl | – | inactive: -0.937%
11 | O=C(Cl)c1ccccc1F | – | inconclusive: -13%
12 | FC(F)(F)c1ccc(Cl)cc1 | – | inconclusive: -0.712%
13 | O=[N+]([O-])c1cc(Cl)c(Cl)c(Cl)c1 | inconclusive: 75 µM [activator, single point] | –
14 | Oc1c(Cl)cc(Cl)cc1Cl | inconclusive: 75 µM [inhibitor, single point] | –
15 | O=C(O)C(Cl)Br (configuration not stated) | – | inconclusive: -22.2%
16 | COC(C)(C)C | – | inconclusive: -6.14%
17 | CCC#N | – | inconclusive: -15.5%
18 | C=CCCl | – | inconclusive: 39.7%
19 | CC(=O)[O-].CC(=O)[O-].CC(=O)[O-].[Cr+3] | inconclusive: 75 µM [inhibitor, partial curve, poor fit] | –
20 | CC(C)[N+](=O)[O-] | – | inactive: -14.5%
21 | O=S(=O)(Cl)c1ccccc1 | – | inconclusive: 0.277%
22 | CCCC[N+](=O)[O-] | – | inconclusive: 16.7%
23 | CN(C)C(=O)Nc1cccc(C(F)(F)F)c1 | – | inactive: 7.86%
24 | C=CC=O | – | inactive: -14.2%
25 | S=C=Nc1cccc2ccccc12 | – | inactive: -12.1%
26 | Brc1ccccc1 | – | inconclusive: 20.1%
27 | C=CC(=O)OCCN(C)C | inconclusive: 75 µM [rising, single point] | –
28 | C=CC(=O)OCC(CO)(COC(=O)C=C)COC(=O)C=C | inconclusive: 66.8 µM [inhibitor, single point] | –

target: Nuclear receptor ROR-gamma (Homo sapiens) (UniProt P51449); test: qHTS assay for small molecule antagonists of the retinoid-related orphan receptor gamma (ROR-gamma) signaling pathway (AID 651802; active means well fitted curve in the direction sought with a large enough effect; inconclusive means small, poorly fitted or top-dose-only effect, or another doubt; inactive means no such curve, though single readings can be large; an effect the other way counts as inactive or inconclusive; further: nearly all actives have a fitted effect of over 60% in size;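 on activity change, negative = inhibition: CHO cells with doxycycline-induced ROR-gamma expression; luciferase reporter luminescence driven by ROR response element; on the % scale 0 is the no-effect control and ±100 the full control effect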); settings: ROR-gamma antagonist cell reporter assay; series mostly up to 92.2 µM; activity change, negative = inhibition: at the top concentration
Sequence of UniProt P51449 (P51449 whole entry, looked up): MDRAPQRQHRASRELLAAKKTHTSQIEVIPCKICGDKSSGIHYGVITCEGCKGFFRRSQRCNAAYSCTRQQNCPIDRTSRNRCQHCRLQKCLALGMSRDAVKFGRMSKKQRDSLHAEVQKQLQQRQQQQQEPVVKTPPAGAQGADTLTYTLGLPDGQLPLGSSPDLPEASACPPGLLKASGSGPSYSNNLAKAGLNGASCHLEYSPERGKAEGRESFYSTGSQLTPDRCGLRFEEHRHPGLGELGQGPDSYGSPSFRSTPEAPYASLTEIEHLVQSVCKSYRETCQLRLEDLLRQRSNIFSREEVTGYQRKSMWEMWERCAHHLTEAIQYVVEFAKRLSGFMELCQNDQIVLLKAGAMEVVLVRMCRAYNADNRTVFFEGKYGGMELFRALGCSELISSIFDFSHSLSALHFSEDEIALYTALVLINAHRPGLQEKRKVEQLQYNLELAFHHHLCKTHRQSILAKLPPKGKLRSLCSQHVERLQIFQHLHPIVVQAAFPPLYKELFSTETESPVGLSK
In short: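 Luminescence (One-Glo, 30 min RT) measured 16 h after compound addition and doxycycline induction at 37C. Reporter: RORE-luciferase under TET-inducible ROR-gamma in CHO cells.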

Row | SMILES | Potency | activity change, negative = inhibition
29 | c1cc(OCC2CO2)cc(OCC2CO2)c1 (configuration not stated) | inconclusive: 42.2 µM [inhibitor, partial curve, poor fit] | –
30 | CCCC[N+](=O)[O-] | inconclusive: 21.1 µM [inhibitor, partial curve, poor fit] | –
31 | Brc1ccccc1 | – | inactive: 15.4%
32 | C=CC(=O)OCC(CO)(COC(=O)C=C)COC(=O)C=C | active: 4.22 µM | –

tested on: not listed separately; test: qHTS assay for small molecule agonists of the antioxidant response element (ARE) signaling pathway measured by Nrf2-dependant transcriptional activity (AID 720636); settings: ARE-luc HepG2, Nrf2 luciferase reporter, 16 h; series mostly up to 92.4 µM; activation: at the top concentration; on activation: % of control where 0% means no effect
In short: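 ARE-luc HepG2 cells carrying an Nrf2-responsive luciferase reporter, in medium with 1% dialyzed FBS, exposed to compound for 16 hr at 37 C, 5% CO2. Luminescence read 30 min after ONE-Glo addition.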

Row | SMILES | Potency | activation
33 | c1cc(OCC2CO2)cc(OCC2CO2)c1 (configuration not stated) | inconclusive: 66.8 µM [activator, single point] and inactive | –
34 | CC(=O)[O-].CC(=O)[O-].CC(=O)[O-].[Cr+3] | – | inactive: -2%
35 | c1ccc2c(c1)ccc1cc3c(ccc4ccccc43)cc12 | inconclusive: 1.68 µM [activator, full curve, poor fit] | –
36 | C=CC(=O)OCC(CO)(COC(=O)C=C)COC(=O)C=C | active: 16.8 µM and active: 12.2 µM | –

tested on: not listed separately; test: qHTS assay for small molecule antagonists of the retinoid-related orphan receptor gamma (ROR-gamma) signaling pathway - cell viability counter screen (AID 720652); settings: RORgamma reporter cell line viability counter screen; series mostly up to 92.2 µM; activity change, negative = cytotoxicity: at the top concentration;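 further: compound exposure lasted 16 hr before ATP read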;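 on activity change, negative = cytotoxicity: CHO reporter cells with doxycycline-induced ROR-gamma expression; on the % scale 0 is the no-effect control and ±100 the full control effect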
In short: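 Cytotoxicity counter screen: intracellular ATP (CellTiter-Glo luminescence) measured in the doxycycline-induced CHO RORE-luciferase reporter line after 16 hr compound exposure at 37 C, 5% CO2.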

Row | SMILES | Potency | activity change, negative = cytotoxicity
37 | c1cc(OCC2CO2)cc(OCC2CO2)c1 (configuration not stated) | inconclusive: 66.8 µM [cytotoxic, single point] | –
38 | CCC#N | – | inactive: 6.27%
39 | CC/C(=C(\c1ccccc1)c1ccc(OCCN(C)C)cc1)c1ccc(O)cc1 | active: 75 µM | –
40 | CC(C)[N+](=O)[O-] | inconclusive: 26.6 µM [cytotoxic, partial curve, poor fit] | –
41 | Brc1ccccc1 | – | inactive: 5.03%
42 | C=CC(=O)OCC(CO)(COC(=O)C=C)COC(=O)C=C | inconclusive: 18.8 µM [rising, full curve] | –
